Measured values as given in the supplement of paper PMC4996465.
Structures can show the parent of a compound that is named as a salt. Viability of KB3-1 and Nalm-6 cells after 48 h of drug alone (CellTiter-Glo), 11 doses over about 4.5 log units. % of DMSO wells, lower = more cell loss; AC50 from the fitted curve, lower = more potent. No active / inactive call. Nalm-6 was screened in two runs. AC50 is listed only for well-fitted inhibitory curves. KB3-1 is a HeLa-derived carcinoma line, Nalm-6 a B-cell precursor leukaemia line.

Experiments:
[1] = system: Nalm-6; assay: viability (% of DMSO control); higher = more viable cells
Method: (§1)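 Eleven-dose screen of the NCATS MIPE 3 library on cells without co-treatment; CellTiter-Glo after 48 h, as % of DMSO wells.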

[2] = system: KB3-1; assay: as above
Method: as §1

[3] = system: Nalm-6; assay: log AC50 of viability decrease (48 h) (log10 M); higher = less potent
Method: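 Eleven-dose screen of the NCATS MIPE 3 library on cells without co-treatment; CellTiter-Glo after 48 h. AC50 from the curve fit; only inhibitory curves of the better fit classes are listed.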

| Compound | viability ([1]; run: 1, 0.00078 µM) | viability ([1]; run: 1, 0.00234 µM) | viability ([1]; run: 1, 0.00702 µM) | viability ([1]; run: 1, 0.0211 µM) | viability ([1]; run: 1, 0.0632 µM) | viability ([1]; run: 1, 0.19 µM) | viability ([1]; run: 1, 0.569 µM) | viability ([1]; run: 1, 1.71 µM) | viability ([1]; run: 1, 5.12 µM) | viability ([1]; run: 1, 15.4 µM) | viability ([1]; run: 1, 46.1 µM) | viability ([1]; run: 2, 0.00078 µM) | viability ([1]; run: 2, 0.00234 µM) | viability ([1]; run: 2, 0.00702 µM) | viability ([1]; run: 2, 0.0211 µM) | viability ([1]; run: 2, 0.0632 µM) | viability ([1]; run: 2, 0.19 µM) | viability ([1]; run: 2, 0.569 µM) | viability ([1]; run: 2, 1.71 µM) | viability ([1]; run: 2, 5.12 µM) | viability ([1]; run: 2, 15.4 µM) | viability ([1]; run: 2, 46.1 µM) | viability ([2]; 0.00078 µM) | viability ([2]; 0.00234 µM) | viability ([2]; 0.00702 µM) | viability ([2]; 0.0211 µM) | viability ([2]; 0.0632 µM) | viability ([2]; 0.19 µM) | viability ([2]; 0.569 µM) | viability ([2]; 1.71 µM) | viability ([2]; 5.12 µM) | viability ([2]; 15.4 µM) | viability ([2]; 46.1 µM) | log AC50 of viability decrease ([3]; run: 1) | log AC50 of viability decrease ([3]; run: 2) |
| --- | --- | --- | --- | --- | --- | --- | --- | --- | --- | --- | --- | --- | --- | --- | --- | --- | --- | --- | --- | --- | --- | --- | --- | --- | --- | --- | --- | --- | --- | --- | --- | --- | --- | --- | --- |
| COc1cc2c(cc1OC)CN(CCc1ccc(NC(=O)c3cccc4c(=O)c5cccc(OC)c5[nH]c34)cc1)CC2 [Elacridar] | 110% | 104% | 112% | 118% | 111% | 105% | 103% | 104% | 96.4% | 84.7% | 47.5% | 104% | 104% | 107% | 104% | 108% | 104% | 101% | 106% | 105% | 90.2% | 64.8% | 100% | 108% | 96% | 112% | 105% | 103% | 102% | 98% | 99.7% | 95.1% | 85.7% | -4.73 | -4.73 |
| COc1cc2nccc(Oc3ccc(NC(=O)C4(C(=O)Nc5ccc(F)cc5)CC4)cc3)c2cc1OC [Cabozantinib] | 98.7% | 105% | 108% | 106% | 110% | 109% | 108% | 109% | 87.5% | 77.7% | 3.7% | 109% | 115% | 110% | 116% | 109% | 110% | 107% | 102% | 93.8% | 85.7% | 3.17% | 98.2% | 103% | 101% | 99.1% | 101% | 98.5% | 105% | 103% | 107% | 106% | 13.6% | -4.68 | -4.68 |
| CC(=O)C\1=C(/C)C2=CN=C(NC3=CC=C(C=N3)N4CCNCC4)N=C2N(C5CCCC5)C1=O | 87% | 91.6% | 90.9% | 91.9% | 80.8% | 66.5% | 64.2% | 56.8% | 47.4% | 48.2% | 1.49% | 110% | 107% | 97.6% | 103% | 95% | 75.6% | 73.1% | 65.6% | 64.6% | 61% | 0.969% | 106% | 98.2% | 97.1% | 103% | 99.3% | 103% | 100% | 97.4% | 97.4% | 90.2% | 3.82% | -4.93 | -4.78 |
| OC(CN1CCC(Cc2ccc(F)cc2)CC1)c1ccc(Cl)cc1 (centres undefined) [Eliprodil] | 117% | 122% | 111% | 115% | 111% | 116% | 111% | 121% | 109% | 71.8% | 35.8% | 104% | 106% | 101% | 106% | 103% | 106% | 104% | 109% | 95.9% | 93.9% | 4.61% | 102% | 104% | 102% | 103% | 102% | 98.1% | 99% | 100% | 89.9% | 100% | 77.4% | -4.83 |  |
| O=C/1\C=C(/OC(=C1)/C2=C3SC4=C(SC3=CC=C2)C=CC=C4)N5CCOCC5 [KU-0064] | 99.4% | 111% | 117% | 107% | 110% | 112% | 111% | 105% | 108% | 96.7% | 2.81% | 103% | 110% | 119% | 115% | 107% | 121% | 121% | 121% | 117% | 107% | 4.39% | 92.4% | 93.3% | 94.7% | 90.4% | 94.8% | 96.1% | 95.9% | 94.7% | 98.2% | 96.4% | 52.6% | -4.58 |  |
| CC(O)(CS(=O)(=O)c1ccc(F)cc1)C(=O)Nc1ccc(C#N)c(C(F)(F)F)c1 (centres undefined) [Bicalutamide] | 105% | 105% | 102% | 107% | 114% | 112% | 109% | 110% | 103% | 96.4% | 74.2% | 103% | 109% | 112% | 113% | 110% | 111% | 109% | 107% | 105% | 112% | 88.3% | 103% | 106% | 105% | 105% | 103% | 108% | 105% | 104% | 97.1% | 100% | 86.6% | -4.73 |  |
| CCN(CCO)CCCOc1ccc2c(Nc3cc(CC(=O)Nc4cccc(F)c4)[nH]n3)ncnc2c1 [AZD-1152-HQPA] | 94.6% | 99% | 66.7% | 61.7% | 63.1% | 64.7% | 61.3% | 60.2% | 44.5% | 45.8% | 8.82% | 92.1% | 105% | 84.4% | 84.1% | 80.4% | 83% | 80.2% | 84.4% | 55% | 52.4% | 2.4% | 96.2% | 95.3% | 92% | 82.8% | 84.7% | 84.1% | 81% | 82% | 83.4% | 83.3% | 59.2% | -4.98 | -4.73 |
| COc1cc(F)c(F)c(Nc2ccc(I)cc2F)c1NS(=O)(=O)C1(C[C@H](O)CO)CC1 [RDEA-119] | 110% | 113% | 111% | 114% | 113% | 117% | 117% | 114% | 103% | 102% | 69.4% | 100% | 106% | 105% | 104% | 102% | 107% | 105% | 103% | 95.6% | 95.4% | 28.1% | 95% | 95.2% | 102% | 99.3% | 101% | 101% | 99.2% | 105% | 103% | 101% | 32.6% | -4.68 |  |
| COC1=CC=CC=C1C2=CC=CC(=C2)C/3=C(O)/C4=CC(=C(Cl)C=C4NC3=O)C#N [FASN MRK] | 121% | 117% | 128% | 125% | 115% | 113% | 112% | 111% | 105% | 99.3% | 75.9% | 111% | 106% | 108% | 106% | 110% | 105% | 103% | 104% | 104% | 98.6% | 93.4% | 106% | 105% | 105% | 97.5% | 102% | 102% | 101% | 100% | 98.9% | 98.1% | 87.6% | -4.73 |  |
| COc1ccc(CCN2CCN(CCCc3ccccc3)CC2)cc1OC [Cutamesine hydrochloride] | 110% | 120% | 124% | 123% | 110% | 113% | 115% | 105% | 104% | 85.1% | 67.1% | 107% | 109% | 104% | 104% | 107% | 98.9% | 96.9% | 98.2% | 96.7% | 93.4% | 63.2% | 108% | 106% | 107% | 112% | 108% | 112% | 107% | 102% | 104% | 95.3% | 87.1% | -4.83 | -4.63 |
| CCn1c(-c2nonc2N)nc2c(C#CC(C)(C)O)ncc(OC[C@H]3CCCNC3)c21 | 105% | 109% | 103% | 95.7% | 74.8% | 67.2% | 64.5% | 58.3% | 58.7% | 53.5% | 0.607% | 104% | 108% | 106% | 94.5% | 84.3% | 66.4% | 66.6% | 62.1% | 59.3% | 59.9% | 0.314% | 102% | 104% | 101% | 97.5% | 98.6% | 93.5% | 98.3% | 94.2% | 85.9% | 87% | 15.7% | -5.38 | -4.98 |
| COc1cc2nccc(Oc3ccc(NC(=O)Nc4cc(C)on4)c(Cl)c3)c2cc1OC [Tivozanib] | 104% | 100% | 104% | 118% | 104% | 110% | 108% | 86% | 80.6% | 54.5% | 11.9% | 109% | 108% | 110% | 109% | 107% | 111% | 99.7% | 102% | 73% | 77% | 6.29% | 105% | 104% | 104% | 107% | 105% | 106% | 110% | 101% | 99.8% | 96.3% | 26.1% | -4.78 | -4.73 |
| Cc1ccccc1C(C(=O)NC1CCCC1)N(C(=O)Cn1cnc2ccccc21)c1cccc(F)c1 (centres undefined) | 72.3% | 105% | 101% | 110% | 106% | 120% | 119% | 114% | 105% | 91.7% | 64% | 97.8% | 101% | 99% | 106% | 102% | 109% | 107% | 94% | 102% | 88.9% | 16.4% | 97.1% | 96.8% | 101% | 103% | 102% | 107% | 108% | 105% | 107% | 98.1% | 45.4% |  | -4.63 |
| COc1ccc(C(=O)c2c(C)n(CCN3CCOCC3)c3ccccc23)cc1 [Pravadoline] | 81% | 93.5% | 102% | 105% | 111% | 111% | 106% | 122% | 100% | 76.6% | 16.9% | 97.5% | 93.4% | 101% | 97.5% | 103% | 102% | 100% | 109% | 97.5% | 74.4% | 7.89% | 102% | 102% | 100% | 108% | 100% | 92.5% | 109% | 106% | 95.7% | 97.8% | 71.5% | -4.73 | -4.68 |
